Reference: paper PMC12090806
No constants are given. Whether binding was seen depends on the method and setting. Binding seen in cells or lysates may run through a third protein. Some entries that bind do so weakly or less than the wild type. For part of these data: Where a sequence is shown, tags or fusion partners need not be part of it.

By UniProt entry, the sequences of proteins in these tests, tags left out. Where a name states a change or a piece, a line headed by the entry shows the natural chain unless it says otherwise. Residues count along the entry.
UniProt Q8IYM9: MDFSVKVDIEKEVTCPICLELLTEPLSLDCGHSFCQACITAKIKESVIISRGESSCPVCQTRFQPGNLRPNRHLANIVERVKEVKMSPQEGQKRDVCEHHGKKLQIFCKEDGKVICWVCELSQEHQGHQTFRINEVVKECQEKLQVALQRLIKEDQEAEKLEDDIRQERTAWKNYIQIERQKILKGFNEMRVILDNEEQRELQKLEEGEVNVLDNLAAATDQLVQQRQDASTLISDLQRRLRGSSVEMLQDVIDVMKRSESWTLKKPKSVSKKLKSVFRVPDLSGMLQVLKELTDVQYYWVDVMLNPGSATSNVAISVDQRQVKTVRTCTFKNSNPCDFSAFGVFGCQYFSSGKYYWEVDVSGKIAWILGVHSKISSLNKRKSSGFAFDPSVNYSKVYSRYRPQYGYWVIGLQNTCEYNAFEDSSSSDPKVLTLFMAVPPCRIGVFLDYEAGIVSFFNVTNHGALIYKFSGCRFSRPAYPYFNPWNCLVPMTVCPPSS
UniProt Q7Z434: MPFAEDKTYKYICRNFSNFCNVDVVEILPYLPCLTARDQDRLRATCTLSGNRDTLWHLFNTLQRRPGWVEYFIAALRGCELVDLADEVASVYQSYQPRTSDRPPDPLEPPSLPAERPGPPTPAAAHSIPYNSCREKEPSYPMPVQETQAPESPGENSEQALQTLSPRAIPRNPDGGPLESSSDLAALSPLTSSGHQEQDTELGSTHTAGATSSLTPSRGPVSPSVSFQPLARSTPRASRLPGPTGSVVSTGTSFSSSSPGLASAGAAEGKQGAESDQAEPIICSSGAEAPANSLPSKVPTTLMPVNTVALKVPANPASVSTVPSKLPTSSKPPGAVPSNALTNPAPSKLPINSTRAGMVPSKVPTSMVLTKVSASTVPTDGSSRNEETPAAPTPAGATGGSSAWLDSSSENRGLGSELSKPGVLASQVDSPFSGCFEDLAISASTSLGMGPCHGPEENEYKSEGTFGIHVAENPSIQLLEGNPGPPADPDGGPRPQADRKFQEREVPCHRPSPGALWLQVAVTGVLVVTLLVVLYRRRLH
UniProt Q86UT6, residues 87-975: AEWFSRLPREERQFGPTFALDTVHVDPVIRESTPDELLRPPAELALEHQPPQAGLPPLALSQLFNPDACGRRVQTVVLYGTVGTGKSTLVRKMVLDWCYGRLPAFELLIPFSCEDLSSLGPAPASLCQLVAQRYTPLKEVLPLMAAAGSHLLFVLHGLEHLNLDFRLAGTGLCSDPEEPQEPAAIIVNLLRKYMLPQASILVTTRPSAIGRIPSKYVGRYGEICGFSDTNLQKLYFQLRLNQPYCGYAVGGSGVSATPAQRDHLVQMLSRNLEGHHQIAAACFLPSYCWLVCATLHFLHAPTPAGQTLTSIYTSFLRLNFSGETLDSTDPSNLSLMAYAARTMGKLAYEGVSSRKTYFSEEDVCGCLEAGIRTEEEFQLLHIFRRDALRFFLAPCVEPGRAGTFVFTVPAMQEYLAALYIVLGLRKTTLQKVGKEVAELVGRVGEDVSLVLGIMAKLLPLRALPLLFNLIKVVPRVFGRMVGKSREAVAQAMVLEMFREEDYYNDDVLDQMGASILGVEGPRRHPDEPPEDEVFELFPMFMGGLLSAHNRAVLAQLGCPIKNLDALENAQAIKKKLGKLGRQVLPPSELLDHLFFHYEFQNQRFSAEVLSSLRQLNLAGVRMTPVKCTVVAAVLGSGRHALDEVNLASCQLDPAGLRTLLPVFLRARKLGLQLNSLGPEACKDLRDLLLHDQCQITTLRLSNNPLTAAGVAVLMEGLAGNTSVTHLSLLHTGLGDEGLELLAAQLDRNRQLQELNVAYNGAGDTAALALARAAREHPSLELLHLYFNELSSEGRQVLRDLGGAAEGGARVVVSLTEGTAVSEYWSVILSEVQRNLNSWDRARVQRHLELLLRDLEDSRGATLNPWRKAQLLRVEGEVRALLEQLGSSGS

B1: His-tagged TBK1 (protein, UniProt Q9UHD2 1-729)
chain: MQSTSNHLWLLSDILGQGATANVFRGRHKKTGDLFAIKVFNNISFLRPVDVQMREFEVLKKLNHKNIVKLFAIEEETTTRHKVLIMEFCPCGSLYTVLEEPSNAYGLPESEFLIVLRDVVGGMNHLRENGIVHRDIKPGNIMRVIGEDGQSVYKLTDFGAARELEDDEQFVSLYGTEEYLHPDMYERAVLRKDHQKKYGATVDLWSIGVTFYHAATGSLPFRPFEGPRRNKEVMYKIITGKPSGAISGVQKAENGPIDWSGDMPVSCSLSRGLQVLLTPVLANILEADQEKCWGFDQFFAETSDILHRMVIHVFSLQQMTAHKIYIHSYNTATIFHELVYKQTKIISSNQELIYEGRRLVLEPGRLAQHFPKTTEENPIFVVSREPLNTIGLIYEKISLPKVHPRYDLDGDASMAKAITGVVCYACRIASTLLLYQELMRKGIRWLIELIKDDYNETVHKKTEVVITLDFCIRNIEKTVKVYEKLMKINLEAAELGEISDIHTKLLRLSSSQGTIETSLQDIDSRLSPGGSLADAWAHQEGTHPKDRNVEKLQVLLNCMTEIYYQFKKDKAERRLAYNEEQIHKFDKQKLYYHATKAMTHFTDECVKKYEAFLNKSEEWIRKMLHLRKQLLSLTNQCFDIEEEVSKYQEYTNELQETLPQKMFTASSGIKHTMTPIYPSSNTLVEMTLGMKKLKEEMEGVVKELAENNHILERFGSLTMDGGLRNVDCL
B2: His-tagged IRF3 (protein, UniProt Q14653 1-427)
chain: MGTPKPRILPWLVSQLDLGQLEGVAWVNKSRTRFRIPWKHGLRQDAQQEDFGIFQAWAEATGAYVPGRDKPDLPTWKRNFRSALNRKEGLRLAEDRSKDPHDPHKIYEFVNSGVGDFSQPDTSPDTNGGGSTSDTQEDILDELLGNMVLAPLPDPGPPSLAVAPEPCPQPLRSPSLDNPTPFPNLGPSENPLKRLLVPGEEWEFEVTAFYRGRQVFQQTISCPEGLRLVGSEVGDRTLPGWPVTLPDPGMSLTDRGVMSYVRHVLSCLGGGLALWRAGQWLWAQRLGHCHTYWAVSEELLPNSGHGPDGEVPKDKEGGVFDLGPFIVDLITFTEGSGRSPRYALWFCVGESWPQDQPWTKRLVMVKVVPTCLRALVEMARVGGASSLENTVDLHISNSHPLSLTSDQYKAYLQDLVEGMDFQGPGES

Columns and labels:
[1] = target: Flag-tagged TRIM22 (human) (UniProt Q8IYM9); assay: co-IP; HEK293T cells co-transfected with Flag-TRIM22 (or truncation mutants) and His-tagged partner (or truncation mutants); lysates incubated with antibody overnight, Protein A/G agarose beads; blots with anti-Flag and anti-His
[2] = target: endogenous TRIM22 (human (endogenous in A549)) (UniProt Q8IYM9); assay: co-IP
[3] = target: endogenous MAVS (human (endogenous in A549, BEAS-2B, HEK293T)) (UniProt Q7Z434); assay: co-IP; endogenous NLRX1 and MAVS from A549 cells overexpressing TRIM22 or vector, and from HEK293T cells transfected with increasing amounts of Flag-TRIM22 or with its Del-RING and Del-PRY/SPRY mutants; Protein A/G agarose beads
[4] = target: endogenous MAVS (human (endogenous in A549, BEAS-2B, HEK293T)) (UniProt Q7Z434); assay: co-IP

Molecule | binding [1] | other results
His-tagged MAVS (from UniProt Q7Z434-1 1-540) | binds | 
endogenous MAVS (from UniProt Q7Z434 1-540) |  | binding [2]: binds
endogenous NLRX1 (from UniProt Q86UT6 87-975) |  | binding [3]: binds; binding [4]: binds
B1 | no binding | 
B2 | no binding | 
